Read counts are not given, so values of variants with three or more changes are uncertain.
B1: LINE1-mini (parent)
chain: GGCAGAGCUCAACACAGCGUGGCAAAGUGGCUGUGGCUAGACUGCC

Variants of: B1
Assay: self-cleavage, relative activity (ratio to wild type); higher = more cleavage; in vitro, sequencing; the parent is a self-cleaving ribozyme

Row | Variant | self-cleavage
1 | C10G G27C C45A | 0
2 | G7A C8G A12G G17C A25U C46U | 0.01
3 | G2U C3A G7U A16C U32A | 0.08
4 | G17A U28G G30U U34A G36U | 0.06
5 | U28A G30U G33A | 0.05
6 | C3G C13A U20A C37G | 0.06
7 | G2U G30C C42U | 0.05
8 | G5U C15U G19U U38G | 0.02
9 | G2U G7A G22C C42A | 0.01
10 | C13G C23U C42A | 0.05
11 | G2A C3G U38A A39G U43A | 0.61
12 | G2C A6G C10G A41G G44C | 0.01
13 | G5C G17A G19C G36A | 0.03
14 | C23A C31U C42U | 0.11
15 | G21A A41U C42U | 0.14
16 | C3U U20A G44C | 0.25
17 | G1C G2C C18A G19U A26G U32G | 0.17
18 | C13U C23A U43C | 0.07
19 | G7A C8G G21C | 0.16
20 | G5C G7U A25G | 0.09
21 | G1C A16U U32C A39C | 0.01

Row | Variant | self-cleavage
22 | A16U G17A G36A | 0.02
23 | A25G G35U C46A | 0.08
24 | G2C G19U G27A | 0.31
25 | A16U C23U G29C | 1.34
26 | C10G A11C C13A U38C | 0.04
27 | C13U A16C G19C U20C A24C U32G G36A | 0.05
28 | C13A A39G C42U | 0.11
29 | A16C G19C G21U A39U | 0.42
30 | A14C A16G A25G C31A | 0.01
31 | A12G C15U G44C | 0.03
32 | A11C G29C A39G | 0
33 | G27C C31G G36C U43G | 0.01
34 | G5C A24G G27C | 0.28
35 | A24G G29A C37U A39U | 0.03
36 | G17C U20G A26U | 1.46
37 | C3G U20A C23U G33C G36U U43C | 0.04
38 | C8A U28G G36C | 0.23
39 | G2A C8A C18U G22C G27A | 1.42
40 | A11G C31A C37G C46A | 0
41 | G7A C31G C42U | 0.24
42 | A4G A16U G35C G40U U43G | 0.06

Row | Variant | self-cleavage
43 | C13U C23U A24U A25U C45U C46A | 0.03
44 | A11U G17A G40A U43C C45A | 0.02
45 | G21U G36U G44A | 0.03
46 | G17C A25U G27U G35C | 0.01
47 | A6C G21A C37G C46U | 0.03
48 | G1C C23A G29C C46G | 0.06
49 | G19C U28A A41G | 0.19
50 | G21A C37A A39U | 0.16
51 | G21U C23A G35C C45U | 0.04
52 | U20C G21C C31G | 0.06
53 | G2C G7C C42U | 0.12
54 | C8A U28C C45U | 0.27
55 | A11U C15A A41G G44C | 0.01
56 | G5A C10A G19U G30U | 0.03
57 | A16G A26G C31A A41G C45U | 0.01
58 | G19A C31U U43C | 0.02
59 | A4G A14C C42A | 0.34
60 | G2U G33C G44A | 0.01
61 | G2U A16G A39G | 0.05
62 | A16U G27A C31A | 0.03
63 | A12U U20A U28C | 0.46

Row | Variant | self-cleavage
64 | U20G C23G U43C | 0.09
65 | C18G A25C G30C U32A | 0.14
66 | C10A C13G C18G | 0.02
67 | G1U C13A A25C | 0.02
68 | C23G U32G G44A | 0.23
69 | G2C C13A G17U G22A G30U | 0.1
70 | A11G C18A G22U G29U A41U C42G | 0
71 | A4U G5U G33C C45U | 0.04
72 | A12U G17A A39U | 0.13
73 | A4C U20G U34A C37G | 0.02
74 | A11G G17A G21C A26G C42U U43C G44A | 0.01
75 | A14U U28A G29U G30A | 0.41
76 | G2C C8G A11C | 0.05
77 | A4U U9G G17C C46A | 0.1
78 | G1U G19U U28A G40C | 0.01
79 | G5A G17C C23A | 0.06
80 | C15U G30A C37U A41U | 0.02
81 | A4C C10A C31U A39C | 0.02
82 | C3A A6G A11C G19U G29A G44A C46U | 0.01
83 | G5C G22C G33A U34C | 0

Source: the RNAGym collection of RNA variant scans (doi:10.7554/elife.90254)
